The other results are listed elsewhere or left out. At the low end of the ranking, values are background and their order means little.

This assay addresses GST-SBP-SLBP (stem-loop binding protein) (UniProt Q14493). Nature of the assay: targeted RNA Bind-n-Seq.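 Note: DESeq read counts versus GST-SBP nonspecific binding control pulldown.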 The note with it: RBNS binding buffer: 25 mM Tris pH 7.5, 150 mM KCl, 3 mM MgCl2, 0.1% Tween, 0.5 mg/mL BSA, 1 mM DTT; 27 nM protein, 750 pM RNA pool; temperature not stated; high values mean tight binding.
For “GGUCACGUCUCAAUCAACUCAUUCUCCAGGGAAAACCCUGGUUUAUUCAACAGCUCGCAGUCAAG”, the binding signal (log2 fold change) was 0.134.
“GGUCACGUCUCAAUCAACUCAACUUCCAGGGAAAACCCUGGCUAAUUCAACAGCUCGCAGUCAAG”: the binding signal (log2 fold change) is -0.0938.
Then “GGUCACGUCUCAAUCAACUCUUUCUCAGGAGUUUACUCCUGUAAUUUCAACAGCUCGCAGUCAAG”, with 0.0846; and “GGUCACGUCUCAAUCAACUCAACUCCCAGGGAAAGCCCUGGUAUUUUCAACAGCUCGCAGUCAAG”, with -0.146.
Consider “GGUCACGUCUCAAUCAACUCUAUCCCCAGGGAAAUCCCUGGUUAUCUCAACAGCUCGCAGUCAAG”, for which the binding signal (log2 fold change) was -0.0336.
For the sequence “GGUCACGUCUCAAUCAACUCUAUCUCCAGGGAAAACCCUGGUUAUUUCAACAGCUCGCAGUCAAG”, the binding signal (log2 fold change) was found to be 0.11.
As for “GGUCACGUCUCAAUCAACUCAGUCUCCAGGGAAAUCCCUGGUUAAUUCAACAGCUCGCAGUCAAG”, the binding signal (log2 fold change) is -0.391.
Then “GGUCACGUCUCAAUCAACUCUAUUUCAGGAGUUUACUCCUGUUUUGUCAACAGCUCGCAGUCAAG”, with 0.118; and “GGUCACGUCUCAAUCAACUCUACGGCAGGAGUUUACUCCUGGAUAUUCAACAGCUCGCAGUCAAG”, with 0.0824.
On to “GGUCACGUCUCAAUCAACUCAUUCCCAGGAGUUUUCUCCUGUUUUCUCAACAGCUCGCAGUCAAG”, for which the binding signal (log2 fold change) was -0.0662.
For the sequence “GGUCACGUCUCAAUCAACUCUUCCCCCAGGGAAAGCCCUGGUUUUCUCAACAGCUCGCAGUCAAG”, the binding signal (log2 fold change) amounted to 0.0161.
Then “GGUCACGUCUCAAUCAACUCUUUCUCCAGGGAAAUCCCUGGCUAUUUCAACAGCUCGCAGUCAAG”, with -0.0809.
To “GGUCACGUCUCAAUCAACUCAUCUCCCAGGGAAAGCCCUGGUAUUCUCAACAGCUCGCAGUCAAG” belongs 0.0751; to “GGUCACGUCUCAAUCAACUCUACUUCAGGAGUUUUCUCCUGUAUUCUCAACAGCUCGCAGUCAAG”, 0.0231; to “GGUCACGUCUCAAUCAACUCUAUCUCAGGAGUUUACUCCUGCAUUCUCAACAGCUCGCAGUCAAG”, 0.0673.
Then “GGUCACGUCUCAAUCAACUCAUCUUCAGGAGUUUACUCCUGCAAUCUCAACAGCUCGCAGUCAAG”, with 0.128; and “GGUCACGUCUCAAUCAACUCAUCCGCAGGAGUUUACUCCUGGAAUUUCAACAGCUCGCAGUCAAG”, with -0.0448.
As to “GGUCACGUCUCAAUCAACUCAAUCUCAGGAGUUUACUCCUGUAUUUUCAACAGCUCGCAGUCAAG”, the binding signal (log2 fold change) turned out to be 0.249.
Then “GGUCACGUCUCAAUCAACUCAAUUCCCAGGGAAAACCCUGGUUUUUUCAACAGCUCGCAGUCAAG”, with -0.143.
On to “GGUCACGUCUCAAUCAACUCAAGUCCCAGGGAAAUCCCUGGCAUAUUCAACAGCUCGCAGUCAAG”, for which the binding signal (log2 fold change) is -0.126.
With “GGUCACGUCUCAAUCAACUCUUUUUCCAGGGAAAUCCCUGGUAAUUUCAACAGCUCGCAGUCAAG”, the binding signal (log2 fold change) came out at 0.214.
Consider “GGUCACGUCUCAAUCAACUCUACUCCAGGAGUUUACUCCUGCAAAUUCAACAGCUCGCAGUCAAG”, for which the binding signal (log2 fold change) was -0.0281.
Then “GGUCACGUCUCAAUCAACUCAUUCCCCAGGGAAAACCCUGGUAAUUUCAACAGCUCGCAGUCAAG”, with 0.0294; and “GGUCACGUCUCAAUCAACUCUAUCCCAGGAGUUUACUCCUGUAUAUUCAACAGCUCGCAGUCAAG”, with 0.162; and “GGUCACGUCUCAAUCAACUCAUUCUCCAGGGAAAGCCCUGGCAUUCUCAACAGCUCGCAGUCAAG”, with -0.15.
To “GGUCACGUCUCAAUCAACUCAACUUCCAGGGAAAGCCCUGGUAAACUCAACAGCUCGCAGUCAAG” belongs -0.0505.
Take “GGUCACGUCUCAAUCAACUCUUCUCCAGGAGUUUCCUCCUGCUUAUUCAACAGCUCGCAGUCAAG”: the binding signal (log2 fold change) was -0.0141.
In the case of “GGUCACGUCUCAAUCAACUCUACUUCCAGGGAAAACCCUGGCAUUUUCAACAGCUCGCAGUCAAG”, the binding signal (log2 fold change) is -0.0301.
As to “GGUCACGUCUCAAUCAACUCAUCUUCAGGAGUUUACUCCUGCUUACUCAACAGCUCGCAGUCAAG”, the binding signal (log2 fold change) is -0.133.
With “GGUCACGUCUCAAUCAACUCAAGUCCAGGAGUUUUCUCCUGUUUAUUCAACAGCUCGCAGUCAAG”, the binding signal (log2 fold change) stood at 0.000656.
To “GGUCACGUCUCAAUCAACUCCUCAGAGGGGGGGAAAACCCCUUUGCCCUCACAAUCAACAGCUCGCAGUCAAG” belongs -0.188; to “GGUCACGUCUCAAUCAACUCAUCCCCCAGGGAAAUCCCUGGUAUAUUCAACAGCUCGCAGUCAAG”, -0.138; to “GGUCACGUCUCAAUCAACUCUUUCCCCAGGGAAAGCCCUGGUUUAUUCAACAGCUCGCAGUCAAG”, 0.27.
For the sequence “GGUCACGUCUCAAUCAACUCUUUAGAGGGGGGGAAAACCCCUUUGCCCUCCAUUUCAACAGCUCGCAGUCAAG”, the binding signal (log2 fold change) was -0.134.
Regarding “GGUCACGUCUCAAUCAACUCAUCCGAGGGGGGGAAAACCCCUUUACCCUCAUAAUCAACAGCUCGCAGUCAAG”, the binding signal (log2 fold change) was found to be 0.262.
Then “GGUCACGUCUCAAUCAACUCAAGUCCAGGAGUUUUCUCCUGCAAUGUCAACAGCUCGCAGUCAAG”, with 0.183; and “GGUCACGUCUCAAUCAACUCCUCAGAGGGGGGGAAAACCCCUUUACCCUCAUCUUCAACAGCUCGCAGUCAAG”, with 0.19; and “GGUCACGUCUCAAUCAACUCAUUUUCAGGAGUUUACUCCUGCUUACUCAACAGCUCGCAGUCAAG”, with -0.189.
To “GGUCACGUCUCAAUCAACUCUCAAGAGGGGGGGAAAACCCCUUUACCCUCCAAAUCAACAGCUCGCAGUCAAG” belongs -0.129; to “GGUCACGUCUCAAUCAACUCUAUCCCCAGGGAAAACCCUGGCUUUCUCAACAGCUCGCAGUCAAG”, -0.247.
Consider “GGUCACGUCUCAAUCAACUCAUACGAGGGGGGGAAAACCCCUUUACCCUCAUAAUCAACAGCUCGCAGUCAAG”, for which the binding signal (log2 fold change) is -0.061.
Then “GGUCACGUCUCAAUCAACUCAUCUUCAGGAGUUUGCUCCUGUUAUUUCAACAGCUCGCAGUCAAG”, with -0.0236.
To “GGUCACGUCUCAAUCAACUCAAUUCCCAGGGAAAUCCCUGGUUUACUCAACAGCUCGCAGUCAAG” belongs 0.242; to “GGUCACGUCUCAAUCAACUCUUCCCCCAGGGAAACCCCUGGUAAUCUCAACAGCUCGCAGUCAAG”, 0.19.
Regarding “GGUCACGUCUCAAUCAACUCUCUCGAGGGGGGGAAAACCCCUUUACCCUCUUCAUCAACAGCUCGCAGUCAAG”, the binding signal (log2 fold change) stood at 0.298.
To “GGUCACGUCUCAAUCAACUCCCUAGAGGGGGGGAAAACCCCUUUGCCCUCAACUUCAACAGCUCGCAGUCAAG” belongs -0.406.
Then “GGUCACGUCUCAAUCAACUCAAUCUCAGGAGUUUUCUCCUGUUAACUCAACAGCUCGCAGUCAAG”, with 0.146; and “GGUCACGUCUCAAUCAACUCAGUUUCAGGAGUUUACUCCUGUUUUUUCAACAGCUCGCAGUCAAG”, with -0.0741.
To “GGUCACGUCUCAAUCAACUCAAUUUCCAGGGAAAACCCUGGCGUUUUCAACAGCUCGCAGUCAAG” belongs -0.177; to “GGUCACGUCUCAAUCAACUCAAUAGAGGGGGGGAAAACCCCUUUGCCCUCAUUAUCAACAGCUCGCAGUCAAG”, -0.217; to “GGUCACGUCUCAAUCAACUCUAUCCCCAGGGAAAGCCCUGGUUAACUCAACAGCUCGCAGUCAAG”, -0.158.
For “GGUCACGUCUCAAUCAACUCUCUAGAGGGGGGGAAAACCCCUUUGCCCUCGUAUUCAACAGCUCGCAGUCAAG”, the binding signal (log2 fold change) is -0.0875.
To “GGUCACGUCUCAAUCAACUCCCUAGAGGGGGGGAAAACCCCUUUACCCUCGAAAUCAACAGCUCGCAGUCAAG” belongs -0.494; to “GGUCACGUCUCAAUCAACUCUAUUCCCAGGGAAAGCCCUGGUUAUCUCAACAGCUCGCAGUCAAG”, 0.0233.
Consider “GGUCACGUCUCAAUCAACUCUUUUUCCAGGGAAAUCCCUGGCUAAUUCAACAGCUCGCAGUCAAG”, for which the binding signal (log2 fold change) was 0.0626.
For the sequence “GGUCACGUCUCAAUCAACUCAUCUUCAGGAGUUUGCUCCUGCUAUUUCAACAGCUCGCAGUCAAG”, the binding signal (log2 fold change) is -0.0773.
Consider “GGUCACGUCUCAAUCAACUCUAUUCCAGGAGUUUACUCCUGCUUUUUCAACAGCUCGCAGUCAAG”, for which the binding signal (log2 fold change) was found to be 0.125.
As for “GGUCACGUCUCAAUCAACUCCUAAGAGGGGGGGAAAACCCCUUUGCCCUCCGUAUCAACAGCUCGCAGUCAAG”, the binding signal (log2 fold change) is -0.392.
As for “GGUCACGUCUCAAUCAACUCUUCAGAGGGGGGGAAAACCCCUUUACCCUCCUAAUCAACAGCUCGCAGUCAAG”, the binding signal (log2 fold change) is 0.368.
To “GGUCACGUCUCAAUCAACUCAUUCCCAGGAGUUUCCUCCUGCUAAUUCAACAGCUCGCAGUCAAG” belongs 0.138; to “GGUCACGUCUCAAUCAACUCAUAAGAGGGGGGGAAAACCCCUUUACCCUCCAUAUCAACAGCUCGCAGUCAAG”, -0.599.
Turning to “GGUCACGUCUCAAUCAACUCAUCCUCAGGAGUUUACUCCUGUAAAGUCAACAGCUCGCAGUCAAG”, the binding signal (log2 fold change) turned out to be 0.00197.
To “GGUCACGUCUCAAUCAACUCUAUCUCCAGGGAAACCCCUGGUAAAUUCAACAGCUCGCAGUCAAG” belongs -0.2.
For the sequence “GGUCACGUCUCAAUCAACUCUUAAGAGGGGGGGAAAACCCCUUUGCCCUCGAUAUCAACAGCUCGCAGUCAAG”, the binding signal (log2 fold change) was -0.0391.
Regarding “GGUCACGUCUCAAUCAACUCAAUUUCCAGGGAAACCCCUGGCUAUCUCAACAGCUCGCAGUCAAG”, the binding signal (log2 fold change) was determined as 0.25.
Then “GGUCACGUCUCAAUCAACUCUAUCCCAGGAGUUUUCUCCUGUAUUCUCAACAGCUCGCAGUCAAG”, with 0.0397; and “GGUCACGUCUCAAUCAACUCUUCCUCCAGGGAAAACCCUGGCAAUGUCAACAGCUCGCAGUCAAG”, with -0.274; and “GGUCACGUCUCAAUCAACUCAUUAGAGGGGGGGAAAACCCCUUUGCCCUCAUUUUCAACAGCUCGCAGUCAAG”, with 0.018.
Regarding “GGUCACGUCUCAAUCAACUCAUCCUCCAGGGAAAACCCUGGCUUUUUCAACAGCUCGCAGUCAAG”, the binding signal (log2 fold change) is -0.0594.
With “GGUCACGUCUCAAUCAACUCAUCUUCAGGAGUUUUCUCCUGCUAAUUCAACAGCUCGCAGUCAAG”, the binding signal (log2 fold change) came out at 0.205.
Then “GGUCACGUCUCAAUCAACUCAUCAGAGGGGGGGAAAACCCCUUUACCCUCAUACUCAACAGCUCGCAGUCAAG”, with -0.218; and “GGUCACGUCUCAAUCAACUCUUCGUCCAGGGAAAGCCCUGGCAAAUUCAACAGCUCGCAGUCAAG”, with -0.141; and “GGUCACGUCUCAAUCAACUCAAUCUCCAGGGAAAGCCCUGGUAUACUCAACAGCUCGCAGUCAAG”, with 0.189.
As for “GGUCACGUCUCAAUCAACUCUUCAGAGGGGGGGAAAACCCCUUUACCCUCCCAUUCAACAGCUCGCAGUCAAG”, the binding signal (log2 fold change) is -0.063.

The values are drawn from PMC5892938.
